# From the RNAGym collection of RNA variant scans (doi:10.7554/elife.90254)
# Read counts are not given, so values of variants with three or more changes are uncertain.
# B1: LINE1-mini (parent)
# chain: GGCAGAGCUCAACACAGCGUGGCAAAGUGGCUGUGGCUAGACUGCC
# Variants of: B1
# Experiment: self-cleavage, relative activity (ratio to wild type); higher = more cleavage; in vitro, sequencing; the parent is a self-cleaving ribozyme
row,Variant,self-cleavage
1,G1C A4C C18A U20A,0.01
2,G1C C8G U38C A41U,0.01
3,G1A G17C A26G A39C,0.01
4,G1C C37A A39C U43A,0.04
5,G1U A4G C15A A16C U20G C31G U32A G44U,0.09
6,G1C G33C G40C,0
7,G1C G5U A12U C23U A41U C45U,0.02
8,G1A U9G G33U,0.05
9,G1C A4C G22C,0.04
10,G1C C3A C8G C42G,0.01
11,G1U A4G U43C,1.73
12,G1C G7U C23U G40U,0.04
13,G1C G22U C23G G30A G33C G40A,0
14,G1A G27C G44U,0.63
15,G1C A6U C10A C13U G19U A39C,0.02
16,G1A G5C A6C A24U U43G,0
17,G1C A14G G30A A39U,0.02
18,G1C C10A C18A G29C A41G,0.01
19,G1A G5C A6G,0.16
20,G1C C42G U43C,0
21,G1A G17A G30U U43A,0.15
22,G1C C13U G21U C46G,0.01
23,G1C C18A U28C C31G,0.01
24,G1C C8G G21A G35A,0.03

row,Variant,self-cleavage
1,G1A G33U C42A,0.13
2,G1C A11C A12U C18U G33A C37G G40C C45U,0
3,G1C G2U C8U A12U,0.02
4,G1A G19C G22A C37A,0.03
5,G1C C10A U20G G33C G36U,0.01
6,G1C U9C G19A A26C A41U,0.04
7,G1A G21A G22A,0.41
8,G1C U9C C37G A41U,0.01
9,G1C G7C C13A A16C A24C C42U,0
10,G1C C8G G40A,0.02
11,G1A G7U G29U,0.11
12,G1C C3A G36C,0.66
13,G1C G2A C13A C46U,0.05
14,G1C G33U U38A,0.01
15,G1A G33C G35U U43A,0.06
16,G1C G7C C18U C46A,0.02
17,G1C A14G G29U U38A,0.04
18,G1A G7A A41G,0.24
19,G1C G7U A14G,0.02
20,G1A G5A G7C U9A,0.5
21,G1C A11U U38C,0.01
22,G1C A6U C13A A24U U28G U38G C45A,0.01
23,G1C U9A C10U,0.01
24,G1A G17A G33U,0.05

row,Variant,self-cleavage
1,G1C A16G C45A,0.07
2,G1C A6U G44A,0.01
3,G1C G7A C13A C15U G21U A26U U32A G36A,0.02
4,G1C A26G G35U C42G,0.01
5,G1C G5A C15A G44U,0.04
6,G1A G17C C45G,0.05
7,G1C G17A G35U,0.02
8,G1C C8A A24C G27C C45U,0.02
9,G1A U20A A26U C45A,0.33
10,G1A G21A G44A,1.08
11,G1A G7C C13A C23U,1.06
12,G1A G29A G35C,0.08
13,G1A U9A C13A G22U G35C,0.13
14,G1U A4C C31A,0.01
15,G1C G2U U20G,0.06
16,G1C G5U A6G G7C C8A C10U A11C,0.02
17,G1A G2C G5A C10A A25G G29U G30A,0.04
18,G1C A39U G44A,0.04
19,G1C G2U U38C,0.09
20,G1C A24C U34A U38A,0.01
21,G1A G5C C8A C18A U32A U38G,0.24
22,G1C A26C C46A,0.09
23,G1C G2A G35A C37A,0.03
24,G1C G7A G40A,0.04

row,Variant,self-cleavage
1,G1A G5U C8A C18U U38C,0.15
2,G1A U9A A11G,0.11
3,G1A G21U C23G C42A,0.01
4,G1C C31U A39G,0.02
5,G1A G7A G29U,0.29
6,G1C G2C A4C A25C,0.04
7,G1A G22U C23A C37A,0.02
8,G1A G22A G35A,0.28
9,G1C C10U G22U C37U G40C C46U,0.01
10,G1C C10U C18G A25C,0.01
11,G1C G19U C42A,0.03
12,G1A G33C U43A,0.1
13,G1A G30U A39G,0.22
14,G1C C3G A16U A24G G35C G44C,0.01
15,G1A G2U U32G C45A,0.09
16,G1C A11U A24C U28G C37A U43G C45G,0
17,G1U A4C G5U C31A C37U,0.03
18,G1A G19U G30C C37G A39U C42G,0.05
19,G1C G27C C31G C37G C46A,0
20,G1C C10U A24U G27U G30C G44A,0.02
21,G1C A16G G33A,0.02
22,G1A G33A U43A,0.05
23,G1C A4U C8U C13A C23U C42U,0.01
24,G1C G21C C42G,0

row,Variant,self-cleavage
1,G1C G2C C3A A25U C31U A39G C42U,0.19
2,G1C G36U G44U,0.04
3,G1C G5U C10G U32C U34G C42A,0.01
4,G1C A4U G5A A24C C42U,0.03
5,G1A G2U G5C G35A,0.06
6,G1C U9A C23A U32C G33A U34C,0.03
7,G1C C3U A6C C10U U34G,0.01
8,G1A G7U A41C G44C,1.07
9,G1C A41G G44U,0.04
10,G1C C3G G19U,0.09
11,G1U A4G C13A C18G U28G G29A C37G C42A,0.15
12,G1A G5C G7C C15A A25C U28G G29U A41U C46A,0.21
13,G1C C3G A39U,0.13
14,G1A G5C A12C C13U U43C,0.03
15,G1C C3U G7A C8A A11U U38G,0.01
16,G1C G7C G19U U43A,0.01
17,G1C C15G C31U G40U,0
18,G1C C15U A25G A41C,0.02
19,G1A U28G G35U C46U,0.09
20,G1C G22A G33U C46A,0.02
21,G1A G5A C10A G27A,0.1
22,G1A U9A A26G,0.43
23,G1C C15A C23G U38A,0.04
24,G1C C8A A25G A41U G44U,0.03

row,Variant,self-cleavage
1,G1A G33U G40U,0.03
2,G1C A6C C15G G33A U38C,0
3,G1C C13U A26C G29A U43C,0.04
4,G1C C10A U28A,0.02
5,G1C A26C U38G,0.02
6,G1C A26G U38C,0
7,G1C C8G C13U C15U G17A,0.03
8,G1C G2A G19A,0.15
9,G1C G7C U32A G33U U38C A39U C45A,0.04
10,G1C A6G G19U,0.04
11,G1C U34A G40U,0.02
12,G1A G5C C8A G33C,0.08
13,G1C A6C C23A,0.29
14,G1A U9A U43C,0.58
15,G1C G29A C46U,0.38
16,G1C A25U G27A C31A G33A,0.03
17,G1C U28A C37G G40U C42U,0.11
18,G1C G7A A11C,0.02
19,G1C G30U G40U,0
20,G1C G30C G44A,0.02
21,G1C C8G A11U,0
22,G1A G2C A4G A11G C37U,0
23,G1C C8A G27U U34A G44U,0.09
24,G1C G19C U28G,0.08

row,Variant,self-cleavage
1,G1C G19U G27U C45A,0.02
2,G1A G2C G5C U9A G27U U32C C37G G40A,0.03
3,G1C U20A A25U U34C,0.04
4,G1C G17A U20C U34A C46U,0.01
5,G1C A6G C31A U38A A41C,0.01
6,G1C G27A G36U,0
7,G1C G5A C15G U38C,0
8,G1C C10A G19A G33U C42A,0
9,G1C C3G C31G,0.08
10,G1A G7U C13G G21A G22A,2.7
11,G1A G19U G35U C42G,0.08
12,G1C G2C C8G G19U G21C G27C,0.02
13,G1C C3A C8G C13U A16U G17A,0.02
14,G1C G2C C10A C15A,0.01
15,G1C C15A A24U,0.02
16,G1C C3U C45U,0.06
17,G1C A11U A14G G17U C23U A39U,0.01
18,G1C G2A C8A C10G C37G C42A U43C,0.01
19,G1A G21A G29A,1.47
20,G1C C15U C42U,0.08
21,G1A G5A A6G G29U C45A,0.07
22,G1A G2U U28G U32C,0.09
23,G1C A6C C45G,0.02
